From PubChem BioAssay AID1347417 (National Center for Advancing Translational Sciences (NCATS), 2020)
Hit rate of the full screen: of about 120,000 compounds, about 5,300 (4.4%) were called active. Inconclusive means that the source gave no clear call. Such entries were picked first, then a sample of the others. Calls follow the shape of the dose curve; as a rule, active = well fitted inhibition curve with a large enough effect; inconclusive = small, poorly fitted or top-dose-only effect; inactive = no such curve, though single readings can be large or run the other way. A potency beside an inconclusive call is a rough fit, not a confirmed value.

Experiment: qHTS Primary assay for Inhibitors of Plasmodium falciparum Dd2 growth in vitro; also: nearly all actives have a fitted effect of over 65% in size
Settings: P. falciparum Dd2 growth, SYBR Green, 72 h; series mostly up to 28.9 µM
Procedure, shortened: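 Infected erythrocytes (Dd2, 0.3% parasitemia, 2.5% hematocrit final) are added to compound in RPMI-1640/Albumax II medium, grown 72 h at 37C in low oxygen, then lysed with saponin/Triton-X containing SYBR Green and read by fluorescence.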
Potency is read from the fitted curve at half-maximal effect; tags tell the direction and shape of the fitted curve.

Structure (SMILES) | Potency
COCCCNC(=O)c1c[nH]c2ncccc12 | inactive
CN(C)c1cccc(Oc2nnnn2[C@H]2CO[C@H]3[C@@H]2OC[C@@H]3NS(=O)(=O)c2ccccc2C#N)c1 | inactive
O=C(c1ccc(F)cc1)N1CCC2(C1)C(=O)N(CCc1ccccc1)c1ccccc12 (centres undefined) | inconclusive: 12.6 µM [inhibitor, single point]
O=C(c1ccco1)N1C[C@@H]2C(CN(CC#Cc3ccccc3)C3CC3)[C@@H]2C1 (some centres undefined) | inconclusive: 15.8 µM [inhibitor, single point]
COc1cccc(OCc2nc3ccccc3n2Cc2ccccc2C)c1 | inconclusive: 14.1 µM [inhibitor, partial curve, poor fit]
O=C(NCc1cccc(Cl)c1)c1ccc(Cn2ccn3nc4c(c3c2=O)CCCC4)cc1 | inconclusive: 3.98 µM [inhibitor, single point]
Cc1ccc2[nH]c(=O)c(CCC(=O)NC3CCN(Cc4ccccc4)CC3)cc2c1 | active: 7.08 µM
O=C1CCN(C(=O)C2CCC2)CCCC(C(=O)N2CCN(c3ccccn3)CC2)CCN1 (centres undefined) | inactive
CC(C)CC(NC(=O)C1=NNC(=O)CC1)c1nnc2n1CCNCC2 (centres undefined) | inactive
Cc1ccc2nc(C3CCN(Cc4cccc(-c5cccnc5)c4)CC3)[nH]c(=O)c2c1 | inconclusive: 8.91 µM [inhibitor, partial curve, poor fit]
Cc1cc(=O)n(CC(=O)Nc2cccc(C(C)C)c2)c(N2CCc3ccccc3C2)n1 | inconclusive: 2.82 µM [inhibitor, single point]
Cc1c(O)cccc1C(=O)N1CCCn2nc(C(=O)NCCN(C)C)cc2C1 | inactive
Cc1ccccc1CNC(=O)C1CCCN(Cc2ccncc2)CCC(=O)NCC1 (centres undefined) | inactive
CCN(CC)C(=O)N1CCCN(C(=O)C2CC2)C(c2ccccc2)CC(=O)NCC1 (centres undefined) | inactive
CCC(C)C1=NS(=O)(=O)c2cc(NC(=O)C(C)C)ccc2N1c1ccccc1 (centres undefined) | inconclusive: 2 µM [inhibitor, single point]
O=C(NCc1nc(-c2cccc(F)c2)c(-c2ccccn2)[nH]1)[C@@H]1CCCN1 | inconclusive: 11.2 µM [inhibitor, partial curve, poor fit]
CN1C(=O)[C@@H]2C[C@@H](CN2Cc2ccccc2F)Oc2ccccc21 | inconclusive: 5.01 µM [inhibitor, single point]

Structure (SMILES) | Potency
COc1ccc(NC(=O)Nc2cccc(-c3ccc(N4CCOCC4)nn3)c2)cc1F | inconclusive: 12.6 µM [inhibitor, single point]
CCCCOc1ccc(C(C)NC(=O)c2cccc(Nc3nc4ccccc4n4nnnc34)c2)cc1 (centres undefined) | inconclusive: 17.8 µM [inhibitor, single point]
CN(C)c1ccc2nnc(-c3cc(C(=O)NCc4ccccc4)ccn3)n2n1 | inconclusive: 12.6 µM [inhibitor, partial curve, poor fit]
Cc1ccc(CN2CCSc3ccc(C(=O)NCCc4ccccc4)cc32)cc1 | inconclusive: 17.8 µM [inhibitor, single point]
Cc1cc(CNC(=O)[C@@H]2CCC[C@@H](NC(=O)c3cccnc3)CN(C)C(=O)C2)no1 | inactive
COc1ccc(CNC(=O)CCCN2C(=O)CSc3c2c(C)nn3-c2ccccc2)c(OC)c1 | inactive
COCC1CN(C(C)=O)CC12CCN(Cc1cccc(Cl)c1F)CC2 (centres undefined) | inactive
Cc1ccc(-c2[nH]c3ccccc3c2SCCNC(=O)c2ccc(S(=O)(=O)N(C)C)cc2)cc1 | active: 8.91 µM
COCC(=O)NC[C@@H]1C=C(C)[C@H](Cc2nc3ccc(C(=O)OC)cc3[nH]2)C[C@H]1C(C)C | active: 11.2 µM
O=C(Nc1nc2ccccc2s1)c1ccc2c(c1)OCCN(CCC(F)(F)F)C2 | inconclusive: 8.91 µM [inhibitor, partial curve, poor fit]
O=C1NCCCCCN(Cc2cccc(F)c2)[C@H]2CCC[C@@H]12 | inconclusive: 20 µM [inhibitor, single point]
COc1ccccc1-c1cc(C(F)(F)F)nc(S(=O)(=O)CCCC(=O)Nc2cc(C)ccc2O)n1 | inactive
CCc1nc2nc(C)cc(Nc3ccc(Br)cc3F)n2n1 | inconclusive: 12.6 µM [inhibitor, single point]
COc1ccc(-c2cc(N3CCCC(NC(=O)c4ccc(OC)c(OC)c4)C3)n[nH]2)cc1 (centres undefined) | inconclusive: 3.98 µM [inhibitor, single point]
COC(=O)CCNC(=O)C1c2ccccc2C(=O)N(CC(C)C)C12CCCC2 (centres undefined) | inactive
COC(=O)c1ccc(NC(=O)N2CCC3(CC2)N(CC2CC2)C(=O)CS3=O)cc1 (centres undefined) | inconclusive: 10 µM [inhibitor, partial curve, poor fit]
CCCCn1c2ccccc2c2nnc(SCC(=O)Nc3ccc(NC(C)=O)cc3)nc21 | inconclusive: 0.501 µM [inhibitor, full curve, poor fit]
